Assay results taken from paper PMC12041881, “Tailored phenyl ureas eradicate drug-resistant Mycobacterium tuberculosis by targeting mycolic acid cell wall assembly” (Chemical Science, 2025).

Assays:
Format in all cases: binding
[1] = target: probe-bound proteins in M. tuberculosis H37Ra cells (Mycobacterium tuberculosis, UniProt P9WM71); conditions: protein Rv0090 (P9WM71, Uncharacterized protein Rv0090); 5µM vs noUV
[2] = target: probe-bound proteins in M. tuberculosis H37Ra cells (Mycobacterium tuberculosis, UniProt O53578); conditions: protein accD4 (O53578); 5µM vs noUV
[3] = target: probe-bound proteins in M. tuberculosis H37Ra cells (Mycobacterium tuberculosis, UniProt P9WPM9); conditions: protein cyp135B1 (P9WPM9, Putative cytochrome P450 135B1); 5µM vs noUV
[4] = target: probe-bound proteins in M. tuberculosis H37Ra cells (Mycobacterium tuberculosis, UniProt P9WIT3); conditions: protein Rv1771 (P9WIT3, L-gulono-1,4-lactone dehydrogenase); 5µM vs noUV
[5] = target: probe-bound proteins in M. tuberculosis H37Ra cells (Mycobacterium tuberculosis, UniProt O33283); conditions: protein ephG (O33283); 5µM vs noUV
[6] = target: probe-bound proteins in M. tuberculosis H37Ra cells (Mycobacterium tuberculosis, UniProt O53896); conditions: protein pepD (O53896); 5µM vs noUV
[7] = target: probe-bound proteins in M. tuberculosis H37Ra cells (Mycobacterium tuberculosis, UniProt P9WKN3); conditions: protein Rv0955 (P9WKN3, Uncharacterized protein Rv0955); 5µM vs noUV
[8] = target: probe-bound proteins in M. tuberculosis H37Ra cells (Mycobacterium tuberculosis, UniProt P9WQN3); conditions: protein ftsH (P9WQN3, ATP-dependent zinc metalloprotease FtsH); 5µM vs noUV
[9] = target: probe-bound proteins in M. tuberculosis H37Ra cells (Mycobacterium tuberculosis, UniProt P9WMR7); conditions: protein Rv1341 (P9WMR7, dITP/XTP pyrophosphatase); 5µM vs noUV
[10] = target: probe-bound proteins in M. tuberculosis H37Ra cells (Mycobacterium tuberculosis, UniProt P9WQH7); conditions: protein accD5 (P9WQH7, Biotin-dependent acetyl-/propionyl-coenzyme A carboxylase beta5 subunit); 5µM vs noUV
[11] = target: probe-bound proteins in M. tuberculosis H37Ra cells (Mycobacterium tuberculosis, UniProt P9WJY1); conditions: protein Rv0037c (P9WJY1, Uncharacterized MFS-type transporter Rv0037c); 5µM vs noUV
[12] = target: probe-bound proteins in M. tuberculosis H37Ra cells (Mycobacterium tuberculosis, UniProt P9WQA7); conditions: protein Rv2298 (P9WQA7, Uncharacterized oxidoreductase Rv2298); 5µM vs noUV
[13] = target: probe-bound proteins in M. tuberculosis H37Ra cells (Mycobacterium tuberculosis, UniProt P9WM93); conditions: protein Rv0034 (P9WM93, Uncharacterized protein Rv0034); 5µM vs noUV
[14] = target: probe-bound proteins in M. tuberculosis H37Ra cells (Mycobacterium tuberculosis, UniProt P9WIW1); conditions: protein nuoL (P9WIW1, NADH-quinone oxidoreductase subunit L); 5µM vs noUV
[15] = target: probe-bound proteins in M. tuberculosis H37Ra cells (Mycobacterium tuberculosis, UniProt P96886); conditions: protein accE5 (P96886); 5µM vs noUV
[16] = target: probe-bound proteins in M. tuberculosis H37Ra cells (Mycobacterium tuberculosis, UniProt P9WJV5); conditions: for MmpL3 enrichment, Student's T-test Difference DM-JB-68 -5µM vs noUV: 5 µM probe vs UV-control, Mtb H37Ra
[17] = target: probe-bound proteins in M. tuberculosis H37Ra cells (Mycobacterium tuberculosis, UniProt P9WJV1); conditions: protein mmpL5 (P9WJV1, Siderophore exporter MmpL5); 5µM vs noUV
[18] = target: probe-bound proteins in M. tuberculosis H37Ra cells (Mycobacterium tuberculosis, UniProt P9WP15); conditions: protein ddn (P9WP15, Deazaflavin-dependent nitroreductase); 5µM vs noUV
[19] = target: probe-bound proteins in M. tuberculosis H37Ra cells (Mycobacterium tuberculosis, UniProt P9WP07); conditions: protein Rv2637 (P9WP07, Uncharacterized membrane protein Rv2637); 5µM vs noUV
[20] = target: probe-bound proteins in M. tuberculosis H37Ra cells (Mycobacterium tuberculosis, UniProt O53368); conditions: protein sdhC (O53368); 5µM vs noUV
[21] = target: probe-bound proteins in M. tuberculosis H37Ra cells (Mycobacterium tuberculosis, UniProt P9WL87); conditions: protein Rv2574 (P9WL87, Uncharacterized protein Rv2574); 5µM vs noUV
[22] = target: probe-bound proteins in M. tuberculosis H37Ra cells (Mycobacterium tuberculosis, UniProt P9WHR1); conditions: protein rip3 (P9WHR1, Putative zinc metalloprotease Rip3); 5µM vs noUV
[23] = target: probe-bound proteins in M. tuberculosis H37Ra cells (Mycobacterium tuberculosis, UniProt P9WP63); conditions: protein crcB1 (P9WP63, Putative fluoride ion transporter CrcB 1); 5µM vs noUV
[24] = target: probe-bound proteins in M. tuberculosis H37Ra cells (Mycobacterium tuberculosis, UniProt P9WQ99); conditions: protein amiA2 (P9WQ99, Putative amidase AmiA2); 5µM vs noUV
[25] = target: probe-bound proteins in M. tuberculosis H37Ra cells (Mycobacterium tuberculosis, UniProt P9WKQ7); conditions: protein Rv0883c (P9WKQ7, Uncharacterized protein Rv0883c); 5µM vs noUV
UniProt P9WKQ7, sequence (P9WKQ7 whole entry): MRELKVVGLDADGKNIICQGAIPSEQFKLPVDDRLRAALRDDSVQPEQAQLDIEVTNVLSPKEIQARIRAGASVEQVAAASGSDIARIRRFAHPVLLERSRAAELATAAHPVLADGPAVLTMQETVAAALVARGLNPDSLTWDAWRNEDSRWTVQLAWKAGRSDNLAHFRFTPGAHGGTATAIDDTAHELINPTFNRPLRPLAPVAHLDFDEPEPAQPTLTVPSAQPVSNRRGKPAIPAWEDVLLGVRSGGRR

UniProt P9WJV5, sequence (P9WJV5 whole entry): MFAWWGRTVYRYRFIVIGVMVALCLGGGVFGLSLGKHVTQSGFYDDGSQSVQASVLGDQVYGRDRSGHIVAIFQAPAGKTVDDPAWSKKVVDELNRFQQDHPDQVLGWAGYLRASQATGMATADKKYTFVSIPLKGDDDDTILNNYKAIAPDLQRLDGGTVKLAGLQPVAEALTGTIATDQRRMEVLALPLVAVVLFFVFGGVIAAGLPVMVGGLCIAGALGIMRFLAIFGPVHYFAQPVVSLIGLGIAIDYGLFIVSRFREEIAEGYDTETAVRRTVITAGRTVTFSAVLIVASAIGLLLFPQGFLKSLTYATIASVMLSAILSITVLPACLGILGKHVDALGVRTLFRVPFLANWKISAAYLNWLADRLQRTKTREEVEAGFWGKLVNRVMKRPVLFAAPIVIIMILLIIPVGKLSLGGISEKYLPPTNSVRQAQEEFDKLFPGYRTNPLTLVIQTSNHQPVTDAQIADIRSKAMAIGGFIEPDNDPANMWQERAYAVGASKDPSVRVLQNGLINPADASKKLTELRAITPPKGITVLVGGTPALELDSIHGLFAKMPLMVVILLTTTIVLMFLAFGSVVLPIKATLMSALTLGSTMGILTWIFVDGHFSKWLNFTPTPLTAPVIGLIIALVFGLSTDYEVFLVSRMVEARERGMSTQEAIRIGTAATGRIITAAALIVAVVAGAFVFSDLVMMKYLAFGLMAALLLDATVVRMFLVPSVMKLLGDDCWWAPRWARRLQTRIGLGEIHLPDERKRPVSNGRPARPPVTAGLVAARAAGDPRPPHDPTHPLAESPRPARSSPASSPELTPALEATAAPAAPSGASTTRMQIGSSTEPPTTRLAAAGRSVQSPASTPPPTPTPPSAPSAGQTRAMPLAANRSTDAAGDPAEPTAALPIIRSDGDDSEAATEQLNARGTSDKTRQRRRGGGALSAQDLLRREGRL
UniProt P9WM71, sequence (P9WM71 whole entry): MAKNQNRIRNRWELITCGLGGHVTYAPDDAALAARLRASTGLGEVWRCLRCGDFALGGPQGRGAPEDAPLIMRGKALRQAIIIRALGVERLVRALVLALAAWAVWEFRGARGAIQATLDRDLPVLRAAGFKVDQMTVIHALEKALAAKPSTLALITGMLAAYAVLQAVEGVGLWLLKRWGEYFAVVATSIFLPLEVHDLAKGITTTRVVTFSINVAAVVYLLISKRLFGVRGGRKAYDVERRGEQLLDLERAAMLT
UniProt O53896, sequence (O53896 whole entry): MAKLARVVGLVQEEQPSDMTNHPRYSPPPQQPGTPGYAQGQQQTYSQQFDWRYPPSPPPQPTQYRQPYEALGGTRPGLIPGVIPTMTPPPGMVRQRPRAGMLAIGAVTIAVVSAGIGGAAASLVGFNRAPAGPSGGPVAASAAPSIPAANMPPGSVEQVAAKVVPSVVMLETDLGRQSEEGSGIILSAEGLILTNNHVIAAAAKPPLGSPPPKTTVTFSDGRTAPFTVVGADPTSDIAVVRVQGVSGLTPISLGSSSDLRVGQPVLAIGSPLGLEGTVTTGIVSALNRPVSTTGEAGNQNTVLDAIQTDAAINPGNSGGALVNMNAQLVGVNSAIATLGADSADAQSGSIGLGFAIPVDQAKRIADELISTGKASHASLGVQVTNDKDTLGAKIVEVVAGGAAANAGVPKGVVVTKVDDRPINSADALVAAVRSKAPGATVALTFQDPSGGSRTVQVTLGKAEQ
UniProt P9WQ99, sequence (P9WQ99 whole entry): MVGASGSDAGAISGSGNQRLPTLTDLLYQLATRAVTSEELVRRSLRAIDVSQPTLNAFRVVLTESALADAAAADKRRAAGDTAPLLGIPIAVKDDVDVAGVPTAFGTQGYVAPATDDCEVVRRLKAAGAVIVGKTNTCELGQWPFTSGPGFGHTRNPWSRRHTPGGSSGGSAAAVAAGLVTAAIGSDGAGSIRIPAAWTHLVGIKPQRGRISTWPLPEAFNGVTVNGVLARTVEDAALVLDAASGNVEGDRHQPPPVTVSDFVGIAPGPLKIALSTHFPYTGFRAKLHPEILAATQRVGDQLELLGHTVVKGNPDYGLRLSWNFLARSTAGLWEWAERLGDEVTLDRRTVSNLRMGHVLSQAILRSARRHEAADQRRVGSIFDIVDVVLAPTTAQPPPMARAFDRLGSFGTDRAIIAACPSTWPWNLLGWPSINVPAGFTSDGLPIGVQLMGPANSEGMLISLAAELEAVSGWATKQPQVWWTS
UniProt P9WIW1, sequence (P9WIW1 whole entry): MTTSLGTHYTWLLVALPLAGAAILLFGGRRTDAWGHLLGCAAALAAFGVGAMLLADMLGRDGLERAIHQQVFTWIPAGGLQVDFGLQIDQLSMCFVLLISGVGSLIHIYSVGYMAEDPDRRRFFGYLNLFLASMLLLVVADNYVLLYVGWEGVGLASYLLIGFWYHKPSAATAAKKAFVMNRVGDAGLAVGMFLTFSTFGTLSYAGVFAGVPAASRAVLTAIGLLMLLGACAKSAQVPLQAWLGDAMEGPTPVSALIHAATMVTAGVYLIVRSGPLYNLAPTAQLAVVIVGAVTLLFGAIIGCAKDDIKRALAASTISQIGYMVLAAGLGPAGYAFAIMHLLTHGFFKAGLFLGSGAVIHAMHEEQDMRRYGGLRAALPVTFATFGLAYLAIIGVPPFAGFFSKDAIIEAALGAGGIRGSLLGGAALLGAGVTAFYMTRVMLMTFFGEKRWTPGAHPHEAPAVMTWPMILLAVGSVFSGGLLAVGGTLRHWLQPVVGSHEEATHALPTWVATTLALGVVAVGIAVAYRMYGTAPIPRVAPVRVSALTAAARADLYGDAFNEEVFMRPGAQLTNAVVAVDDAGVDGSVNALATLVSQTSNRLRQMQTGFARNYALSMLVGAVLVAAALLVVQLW
UniProt P9WP63, sequence (P9WP63 whole entry): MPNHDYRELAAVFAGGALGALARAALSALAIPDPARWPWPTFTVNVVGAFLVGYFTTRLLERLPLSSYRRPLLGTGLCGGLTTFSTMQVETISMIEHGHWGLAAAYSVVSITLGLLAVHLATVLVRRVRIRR
UniProt P9WQN3, sequence (P9WQN3 whole entry): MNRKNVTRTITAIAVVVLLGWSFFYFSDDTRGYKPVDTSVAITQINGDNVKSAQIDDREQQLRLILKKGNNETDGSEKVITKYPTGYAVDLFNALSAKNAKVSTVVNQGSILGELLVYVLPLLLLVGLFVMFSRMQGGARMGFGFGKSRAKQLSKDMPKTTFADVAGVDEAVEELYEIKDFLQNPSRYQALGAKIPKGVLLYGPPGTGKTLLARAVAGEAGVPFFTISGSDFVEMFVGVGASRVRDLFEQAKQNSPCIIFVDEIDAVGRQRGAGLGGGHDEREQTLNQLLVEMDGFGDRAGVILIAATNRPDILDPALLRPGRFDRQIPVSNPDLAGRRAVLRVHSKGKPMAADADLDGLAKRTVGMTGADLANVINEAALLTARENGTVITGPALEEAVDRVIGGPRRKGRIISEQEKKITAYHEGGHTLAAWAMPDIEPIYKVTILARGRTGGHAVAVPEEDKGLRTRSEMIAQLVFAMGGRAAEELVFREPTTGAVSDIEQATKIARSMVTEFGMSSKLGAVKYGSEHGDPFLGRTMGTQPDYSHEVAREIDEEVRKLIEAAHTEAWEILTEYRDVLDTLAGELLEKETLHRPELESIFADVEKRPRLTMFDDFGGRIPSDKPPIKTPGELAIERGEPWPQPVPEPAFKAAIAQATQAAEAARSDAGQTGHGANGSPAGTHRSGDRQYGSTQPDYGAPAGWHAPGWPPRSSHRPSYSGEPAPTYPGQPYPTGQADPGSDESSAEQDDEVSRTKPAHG
UniProt P9WM93, sequence (P9WM93 whole entry): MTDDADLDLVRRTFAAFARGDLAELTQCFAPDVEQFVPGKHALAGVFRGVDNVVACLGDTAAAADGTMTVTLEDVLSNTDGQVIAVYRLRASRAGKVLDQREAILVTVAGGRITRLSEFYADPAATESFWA
UniProt P9WHR1, sequence (P9WHR1 whole entry): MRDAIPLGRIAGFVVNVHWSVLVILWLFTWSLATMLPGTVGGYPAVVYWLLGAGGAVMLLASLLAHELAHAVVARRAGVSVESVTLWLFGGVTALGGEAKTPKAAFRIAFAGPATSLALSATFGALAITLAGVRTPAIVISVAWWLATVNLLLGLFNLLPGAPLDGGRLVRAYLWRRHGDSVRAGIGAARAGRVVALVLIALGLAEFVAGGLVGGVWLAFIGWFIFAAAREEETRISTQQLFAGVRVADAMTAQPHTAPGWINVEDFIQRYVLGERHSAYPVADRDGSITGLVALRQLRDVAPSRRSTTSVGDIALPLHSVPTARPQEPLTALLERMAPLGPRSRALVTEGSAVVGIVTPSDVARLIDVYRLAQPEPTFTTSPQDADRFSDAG
UniProt P9WIT3, sequence (P9WIT3 whole entry): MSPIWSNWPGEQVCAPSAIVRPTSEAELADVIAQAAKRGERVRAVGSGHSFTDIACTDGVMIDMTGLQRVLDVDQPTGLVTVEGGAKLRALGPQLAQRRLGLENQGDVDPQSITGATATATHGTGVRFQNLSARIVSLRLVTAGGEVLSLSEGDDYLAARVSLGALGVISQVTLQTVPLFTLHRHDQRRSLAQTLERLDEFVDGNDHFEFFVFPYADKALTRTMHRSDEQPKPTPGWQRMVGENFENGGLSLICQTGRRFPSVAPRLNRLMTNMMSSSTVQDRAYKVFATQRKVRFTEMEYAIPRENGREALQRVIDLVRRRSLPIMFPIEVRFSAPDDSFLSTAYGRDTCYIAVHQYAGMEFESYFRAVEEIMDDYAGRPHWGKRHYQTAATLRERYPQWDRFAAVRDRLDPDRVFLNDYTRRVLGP

C#CC1(NC(=O)Nc2ccc(N=[N+]=[N-])cc2)CCCCC1 [Compound 227-p1]
Student's T-test Difference DM-JB-68 -5µM_DM-JB-68 -5µM_noUV [1]: -0.4232
Student's T-test Difference DM-JB-68 -5µM_DM-JB-68 -5µM_noUV [2]: 0.3579
Student's T-test Difference DM-JB-68 -5µM_DM-JB-68 -5µM_noUV [3]: -0.4919
Student's T-test Difference DM-JB-68 -5µM_DM-JB-68 -5µM_noUV [4]: -0.2815
Student's T-test Difference DM-JB-68 -5µM_DM-JB-68 -5µM_noUV [5]: -0.1072
Student's T-test Difference DM-JB-68 -5µM_DM-JB-68 -5µM_noUV [6]: 0.4742
Student's T-test Difference DM-JB-68 -5µM_DM-JB-68 -5µM_noUV [7]: 0.1139
Student's T-test Difference DM-JB-68 -5µM_DM-JB-68 -5µM_noUV [8]: 0.7121
Student's T-test Difference DM-JB-68 -5µM_DM-JB-68 -5µM_noUV [9]: 0.7533
Student's T-test Difference DM-JB-68 -5µM_DM-JB-68 -5µM_noUV [10]: 0.6026
Student's T-test Difference DM-JB-68 -5µM_DM-JB-68 -5µM_noUV [11]: -0.4477
Student's T-test Difference DM-JB-68 -5µM_DM-JB-68 -5µM_noUV [12]: -0.1827
Student's T-test Difference DM-JB-68 -5µM_DM-JB-68 -5µM_noUV [13]: 0.3154
Student's T-test Difference DM-JB-68 -5µM_DM-JB-68 -5µM_noUV [14]: 0.1604
Student's T-test Difference DM-JB-68 -5µM_DM-JB-68 -5µM_noUV [15]: 0.275
MmpL3 enrichment, Student's T-test Difference DM-JB-68 -5µM vs noUV [16]: could not be enriched
MmpL3 enrichment, Student's T-test Difference DM-JB-68 -5µM vs noUV ([16]; listed as DM-JB-68): -0.05077
Student's T-test Difference DM-JB-68 -5µM_DM-JB-68 -5µM_noUV ([16]; protein mmpL3 (P9WJV5, Trehalose monomycolate exporter MmpL3), 5µM vs noUV): -0.05077
Student's T-test Difference DM-JB-68 -5µM_DM-JB-68 -5µM_noUV [17]: 0.3913
Student's T-test Difference DM-JB-68 -5µM_DM-JB-68 -5µM_noUV [18]: -0.278
Student's T-test Difference DM-JB-68 -5µM_DM-JB-68 -5µM_noUV [19]: 0.06894
Student's T-test Difference DM-JB-68 -5µM_DM-JB-68 -5µM_noUV [20]: -0.436
Student's T-test Difference DM-JB-68 -5µM_DM-JB-68 -5µM_noUV [21]: 0.135
Student's T-test Difference DM-JB-68 -5µM_DM-JB-68 -5µM_noUV [22]: 0.7916
Student's T-test Difference DM-JB-68 -5µM_DM-JB-68 -5µM_noUV [23]: 0.4201
Student's T-test Difference DM-JB-68 -5µM_DM-JB-68 -5µM_noUV [24]: 0.3344
Student's T-test Difference DM-JB-68 -5µM_DM-JB-68 -5µM_noUV [25]: -1.1407

Like-named read-outs stand apart in the source and are kept apart here.
